Data reported in the RNAGym collection of RNA variant scans (doi:10.7554/elife.90254).
The source gives no read counts; variants with many changes may rest on few reads.

B1: LINE1-mini (parent)
chain: GGCAGAGCUCAACACAGCGUGGCAAAGUGGCUGUGGCUAGACUGCC

Variants of: B1
Experiment: self-cleavage, relative activity (ratio to wild type); higher = more cleavage; in vitro, sequencing; the parent is a self-cleaving ribozyme

Variant	self-cleavage
GGCAGAGCUCAAGUCAGCGUGGCAAAGUGGCUGUGGAUAGACUGCG	0.05
GGCAGAGCUCAAAACAGCGGUGCAAAGUGGCUGUGGCUGGACUGCC	0.04
GGCAGAGCUCAAGUCAGCGCGGCAAAGUGUCUGUGGCUAGAGUGCA	0.02
GGCAGAGCUCAAGACGGCGUCGCAAAGUGGCUGUGGCUAGACUGCC	0
GGCAGAGCUCAAGGCAGCGCGGCCAAGUGGCUGUGGCUGGACUGCC	0.03
GGCAGAGCUCAAAACAGCGCGGCAAAGUGCCUGUGGCUAGACUGCC	0.04
GGCAGAGCUCAAGACAGCGUGGCAUAGUGGCUGUGGCCAGACUGCC	0.03
GGCAGAGCUCAAGACCGCGUGGCAAAGUGGCUUUGGCUAGACUGCC	0.03
GGCAGAGCUCAAAACAGCUUGGCAAAGUGGCUGAGGCUAGACUGCC	0.06
GGCAGAGCUCAAGCCAGCGUGGCAAAGUGGCUUUGGCUAGACUGCC	0.01
GGCAGAGCUCAAGACAGCGUGGCAGAGUCGCUGUGGCUAGAUUGCC	0.08
GGCAGAGCUCAAAACAGCGUGCCAAAGUGGCUGUGGCAAGACUCCC	0.03
GGCAGAGCUCAAAACAGCGUCGCAAAGUGGCUGUGGGUACACUGCC	0.09
GGCAGAGCUCAAGACAGCGUGGCAUAGUGGCUGAGCCUAGACUGCC	0.05
GGCAGAGCUCAAGACAGCGUGGCACAGUGGCUGUGACUAGACUGCC	0.03
GGCAGAGCUCAAAACAGCGUGGCAAAUUGGGUGUUGCUAGACUACC	0.02
GGCAGAGCUCAAAACAGCGUGGCAAAGUGGCUGUCGGUAGACCGCC	0.03
GGCAGAGCUCAAAACAGCGUGGCAAACUGGUUGUGGCUAGACUGCC	0.19
GGCAGAGCUCAAGACAGCGUGGCACAGUGGCUGUGGAUAAACUGCC	0.32

Variant	self-cleavage
GGCAGAGCUCAAAACAGCGCGGCAAAGUUGCUGUGGCUAUACUGCC	0.06
GGCAGAGCUCAAGACAGCGUGGCACAGUGGCUGUGGCUAGACAGCC	0.08
GGCAGAGCUCAAAACAGCGUGGCAAAGUGGCUGUGGCAAGACCGCC	0.15
GGCAGAGCUCAAAACAGCGUGGCAAAGUAGCUGUGACUAGACUGCC	0.21
GGCAGAGCUCAAGCCGGCGUGGCAAAGUGGCUGUGGCUAGACUGCC	0.02
GGCAGAGCUCAAGCCAGCCUGGCAAACUGGCUGUGGCUAGACUGCC	0.02
GGCAGAGCUCAAGACAGCGUGGCCAAGUGGCUGUGGUUAGACUGCC	0.11
GGCAGAGCUCAAAACAGCGUGGCAAAGAGGCUGUGGCUAGACUGGC	0.06
GGCAGAGCUCAAAACAGCGUGGCAAAGUGGCUGAGGCUAGACCGCA	0.02
GGCAGAGCUCAAAACAGCGUGGCAAAGUGACUGUGGCUAGACAGCC	0.16
GGCAGAGCUCAAAACAGCGUGGCAAAGUGUCUAUGGCUAGACUGCC	0.04
GGCAGAGCUCAAAACAGCGUGGCAAAGUGUCUCUGGCUAGACUGCC	0.05
GGCAGAGCUCAAAACAGCGUGGCAAAGGGGCUGUGGCUUGACUGCU	0.01
GGCAGAGCUCAAAACAGCGUGGCAAAAGGGCUGUGGCUAGACUGCC	0.08
GGCAGAGCUCAAGACCGCGUGGCAAAGUGGCUGUGGUUAGACUGCC	0.07
GGCAGAGCUCAAAACAGCGUAGCAUAGUGGCUGUGGCUAGACUGCC	0.18
GGCAGAGCUCAAAACAGCGUGGCAAAAUGGCUCUGGCUAGACUGCC	0.06
GGCAGAGCUCAAGACAGCGUGGCAGAGUGGCUGUGGCUAUUCGGCC	0.09
GGCAGAGCUCAAAACAGCGUGGCAAAGUUGUUGUGGCUAGACUGCC	0.03

Variant	self-cleavage
GGCAGAGCUCAAGCCAGCGUUGCAAAGGAGCUGUGGCUAGAGUCCC	0.01
GGCAGAGCUCAAAACAGCGAGGCUAUGUGGGGGUGGCUAGACUGCC	0.05
GGCAGAGCUCAAAACAGCGUGGCAAAUCGGAUGUGGCUAGACUGCC	0.02
GGCAGAGCUCAAAACAGCGAGGCAAAGUGGCUGUGGCUAGACCUCC	0.06
GGCAGAGCUCAAAACAGCGUUGCAAAGUGGCUGUGGCUAGAGUGCC	0.1
GGCAGAGCUCAAGUCAGCGUGGCAAAGUGGCUGUGCCUAGUCUGCC	0.04
GGCAGAGCUCAAAACAGCGUGUCAAAGUGGCGGUGGCUAGACUGCC	0.04
GGCAGAGCUCAAAACAGCGUGGCAAAGUAGUUGUGACUAGACUGCC	0.03
GGCAGAGCUCAAAACAGCGUGGCAAAGUGUUUGUGGCUUGACUUCC	0.02
GGCAGAGCUCAAAACAGCGUGGCAAAUUGGAUGUGGCUAGACUGCC	0.05
GGCAGAGCUCAAAACAGCGUGGCAAACUGGCGGUGGCUUGACUGCC	0.19
GGCAGAGCUCAAAACAGCGAGGCAAAGUUGCUGUGGCUAGUCUGCC	0.07
GGCAGAGCUCAAGACAGCGUGGCGAAGUGGCUCUGGCUAGUCUGCC	0.03
GGCAGAGCUCAAAACAGCGGGGCAAAGUGGCGGUGGCUAGACUGCC	0.01
GGCAGAGCUCAAGACAGCGUGGCAAGGUGGCUGUGGCUCAACUACC	0.02
GGCAGAGCUCAAAACAGCGUCGCAAAGUAGCUGAGGCUAGACUGCC	0.11
GGCAGAGCUCAAAACAGCUAGGCAUAGUGGCUGUGGCUACACUGCC	0.11
GGCAGAGCUCAAGACCGCGUGGCAAAGUGGCUGUGGCUCGACUGCC	0.03
